Columns and labels:
[1] = target: GDP-KRAS G12V (Homo sapiens, UniProt P01116, G12V); assay: biochemical
[2] = target: GDP-KRAS G12D (Homo sapiens, UniProt P01116, G12D); assay: biochemical

| Structure (SMILES) | IC50 [1] | IC50 [2] |
| --- | --- | --- |
| C#Cc1c(F)ccc2cc(N)cc(-c3nc4c5c(nc(OC[C@@]67CCCN6C[C@H](F)C7)nc5c3F)N3CCCC[C@@H](F)C3N4C)c12 (some centres unmarked) [Compound 49] | 3.38 nM | 2.1 nM |
| C#Cc1c(F)ccc2cc(N)cc(-c3nc4c5c(nc(OCC67CC(=C)CN6C[C@H](F)C7)nc5c3F)N3CCCOC[C@H]3CO4)c12 (some centres unmarked) [Compound 13] | 0.978 nM | 1.21 nM |
| C#Cc1c(F)ccc2cc(N)cc(-c3nc4c5c(nc(OCC6(CN7CCOCC7)CC6)nc5c3F)N3CCCOC[C@H]3N4C)c12 [Compound 74] | 2.07 nM | 3.4 nM |
| C#Cc1c(F)ccc2cc(N)cc(-c3nc4c5c(nc(OCC6(CN7CC[C@@H](F)C7)CC6)nc5c3F)N3CCCOCC3N4C)c12 (some centres unmarked) [Compound 82] | 11.6 nM | 3.63 nM |
| C#Cc1c(F)ccc2cc(N)cc(-c3nc4c5c(nc(OCC67C[C@@H](F)CN6CC6(CC6)C7)nc5c3F)N3CCCOC[C@H]3CO4)c12 (some centres unmarked) [Compound 33] | 0.89 nM | 0.866 nM |
| C#Cc1c(F)c(F)cc2cc(N)cc(-c3nc4c5c(nc(OC[C@@]67CCCN6C[C@H](F)C7)nc5c3F)N3CCCOC[C@H]3CO4)c12 [Compound 8] | 0.55 nM | 1.03 nM |
| C#Cc1c(F)ccc2cc(N)cc(-c3nc4c5c(nc(OC[C@@]67CCCN6C[C@H](F)C7)nc5c3F)N3C(C5CCCO5)CCOCC3N4C)c12 (some centres unmarked) [Compound 100] | 3.78 nM | 9.91 nM |
| C#Cc1c(F)ccc2cc(N)cc(-c3nc4c5c(nc(OC[C@@]67CCCN6C[C@H](F)C7)nc5c3F)N3CC(F)(F)CCC3N4C)c12 (some centres unmarked) [Compound 53] | 7.14 nM | 6.82 nM |
| C#Cc1c(F)ccc2cc(N)cc(-c3nc4c5c(nc(OC[C@@]67CCCN6C[C@H](F)C7)nc5c3F)N3CC(CC#N)COCC3N4C)c12 (some centres unmarked) [Compound 126] | 5.45 nM | 5.04 nM |
| C#Cc1c(F)ccc2cc(N)cc(-c3nc4c5c(nc(OC[C@@]67CCCN6C[C@H](F)C7)nc5c3F)N3C5CC5COC[C@H]3CO4)c12 (some centres unmarked) [Compound 35] | 2.78 nM | 3.53 nM |
| C#Cc1c(F)ccc2cc(N)cc(-c3nc4c5c(nc(OCC6(CN7CC8CC8C7)CC6)nc5c3F)N3CCCOCC3N4C)c12 (centres unmarked) [Compound 117] | 3.37 nM | 5.88 nM |
| C#Cc1c(F)ccc2cc(N)cc(-c3nc4c5c(nc(OC[C@@]67CCCN6C[C@H](F)C7)nc5c3F)N3CCCOC[C@H]3C4=C)c12 [Compound 21] | 0.53 nM | 0.767 nM |
| C#Cc1c(F)ccc2cc(N)cc(-c3nc4c5c(nc(OC[C@@]67CCCN6C[C@H](F)C7)nc5c3F)N3[C@@H](C)CCCC[C@H]3N4C)c12 [Compound 88] | 0.579 nM | 0.643 nM |
| C#Cc1c(F)ccc2cc(N)cc(-c3nc4c5c(nc(OC[C@@]67CCCN6C[C@H](F)C7)nc5c3F)N3CCC=CCC3N4C)c12 (some centres unmarked) [Compound 72] | 3.5 nM | 3.17 nM |
| C[C@H]1CCOC[C@H]2N(C)c3nc(-c4cc(O)cc5ccc(F)c(F)c45)c(F)c4nc(OC[C@@]56CCCN5C[C@H](F)C6)nc(c34)N12 [Compound 73] | 1.02 nM | 1.49 nM |
| C#Cc1c(F)ccc2cc(N)cc(-c3cc4c5c(nc(OC[C@@]67CCCN6C[C@H](F)C7)nc5c3F)N3[C@@H](C)CCOC[C@H]3N4C)c12 [Compound 44] | 0.635 nM | 2.07 nM |
| C#Cc1c(F)ccc2cc(N)cc(-c3nc4c5c(nc(OC[C@@]67CCCN6C[C@H](F)C7)nc5c3F)N3CCOCC3N4C3CC3)c12 (some centres unmarked) [Compound 96] | 10.2 nM | 18.7 nM |
| CN(C)CC1(COc2nc3c4c(nc(-c5ccc(F)c6sc(N)c(C#N)c56)c(F)c4n2)N(C)[C@@H]2COCCCN32)CC1(F)F (some centres unmarked) [Compound 164] | 4.18 nM | 4.68 nM |
| C[C@H]1CCOC[C@H]2N(C)c3nc(-c4cc(N)cc5ccc(F)c(Cl)c45)c(F)c4nc(OC[C@@]56CCCN5C[C@H](F)C6)nc(c34)N12 [Compound 120] | 1.98 nM | 1.96 nM |
| C#Cc1c(F)ccc2cc(N)cc(-c3nc4c5c(nc(OC[C@@]67CCCN6C[C@H](F)C7)nc5c3F)N3CCCOCC3N4C)c12 (some centres unmarked) [Compound 10] | 2.01 nM | 2.51 nM |
| C#Cc1c(F)ccc2cc(N)cc(-c3nc4c5c(nc(OC(C)[C@@]67CCCN6C[C@H](F)C7)nc5c3F)N3CCCOCC3N4C)c12 (some centres unmarked) [Compound 150] | 7.35 nM | 8.27 nM |
| C#Cc1c(F)ccc2cc(N)cc(-c3nc4c5c(nc(OCC67CC(C)CN6C[C@H](F)C7)nc5c3F)N3CCCOC[C@H]3CO4)c12 (some centres unmarked) [Compound 32] | 2.1 nM | 3.69 nM |

| Structure (SMILES) | IC50 [1] | IC50 [2] |
| --- | --- | --- |
| C#Cc1c(F)ccc2cc(N)cc(-c3nc4c5c(nc(OCC67CCCN6CC(F)C7)nc5c3F)N3CCC5CC5C(F)C3N4C)c12 (centres unmarked) [Compound 116] | 3.55 nM | 6.76 nM |
| C#Cc1c(F)c(F)cc2cc(N)cc(-c3nc4c5c(nc(OC[C@@]67CCCN6CC(=C)C7)nc5c3F)N3CCCOC[C@H]3CO4)c12 [Compound 34] | 0.798 nM | 1.31 nM |
| N#Cc1c(N)sc2c(F)ccc(-c3cc4c5c(nc(OC[C@@]67CCCN6C[C@H](F)C7)nc5c3F)N3CCCOC[C@H]3CO4)c12 [Compound 161] | 0.901 nM | 1.77 nM |
| C#Cc1c(F)ccc2cc(N)cc(-c3nc4c5c(nc(OC[C@@]67CCCN6C[C@H](F)C7)nc5c3F)N3CC(C#N)COCC3N4C)c12 (some centres unmarked) [Compound 172] | 1.04 nM | 12.9 nM |
| C#Cc1c(F)ccc2cc(N)cc(-c3nc4c5c(nc(OC[C@@]67CCCN6C[C@H](F)C7)nc5c3F)N3CCCCOC3N4C)c12 (some centres unmarked) [Compound 70] | 1.9 nM | 2.07 nM |
| N#Cc1c(N)sc2c(F)ccc(-c3nc4c5c(nc(OC[C@@]67CCCN6C[C@H](F)C7)nc5c3F)N3CCCOC[C@H]3CO4)c12 [Compound 160] | 3.31 nM | 2.36 nM |
| C#Cc1c(F)ccc2cc(N)cc(-c3nc4c5c(nc(OCC67CC(=C)CN6CC(=C)C7)nc5c3F)N3CCCOC[C@H]3CO4)c12 [Compound 3] | 1.88 nM | 2.95 nM |
| C#Cc1c(F)ccc2cc(N)cc(-c3nc4c5c(nc(OC[C@@]67CCCN6C[C@H](F)C7)nc5c3F)N3CCC=CC3N4C)c12 (some centres unmarked) [Compound 71] | 2.23 nM | 1.55 nM |
| C#Cc1c(F)ccc2cc(N)cc(-c3nc4c5c(nc(OC[C@@]67CCCN6C[C@H](F)C7)nc5c3F)N3CCC(F)CC(F)C3N4C)c12 (some centres unmarked) [Compound 115] | 3.55 nM | 2.56 nM |
| C#Cc1c(F)ccc2cc(N)cc(-c3nc4c5c(nc(OC[C@@]67CCCN6C[C@H](F)C7)nc5c3F)N3CC(F)CCCC3N4C)c12 (some centres unmarked) [Compound 47] | 0.945 nM | 1.25 nM |
| C#Cc1c(F)ccc2cc(N)cc(-c3nc4c5c(nc(OC[C@]67CC(=C)CN6C[C@@H](OC)C7)nc5c3F)N3CCCOC[C@H]3N4C)c12 [Compound 170] | 2.03 nM | 8.14 nM |
| C#Cc1c(F)ccc2cc(N)cc(-c3nc4c5c(nc(OC[C@@]67CCCN6C[C@H](F)C7)nc5c3F)N3CCCC/C(=C\F)C3N4C)c12 (some centres unmarked) [Compound 85] | 3.81 nM | 8.56 nM |
| C#Cc1c(F)ccc2cc(N)cc(-c3nc4c5c(nc(OC[C@@]67CCCN6C[C@H](F)C7)nc5c3F)N3CC(F)(F)COC[C@H]3CO4)c12 [Compound 19] | 0.534 nM | 0.746 nM |
| C#Cc1c(F)ccc2cc(N)cc(-c3nc4c5c(nc(OC[C@@]67CCCN6C[C@H](F)C7)nc5c3F)N3CCCCC(C#N)C3N4C)c12 (some centres unmarked) [Compound 101] | 5.64 nM | 8.39 nM |
| C#Cc1c(F)ccc2cc(O)cc(-c3nc4c5c(nc(OC[C@@]67CCCN6C[C@H](F)C7)nc5c3F)N3CCC=CC[C@H]3CO4)c12 [Compound 63] | 0.769 nM | 0.839 nM |
| C#Cc1c(F)ccc2cc(O)cc(-c3nc4c5c(nc(OC[C@@]67CCCN6C[C@H](F)C7)nc5c3F)N3CCOCC3C4=C)c12 (some centres unmarked) [Compound 12] | 5.57 nM | 12.8 nM |
| C#Cc1c(F)ccc2cc(N)cc(-c3nc4c5c(nc(OC[C@@]67CCCN6C[C@H](F)C7)nc5c3F)N3CC(CF)COCC3N4C)c12 (some centres unmarked) [Compound 124] | 6.68 nM | 8.98 nM |
| CSc1cccc2cc(N)cc(-c3nc4c5c(nc(OC[C@@]67CCCN6C[C@H](F)C7)nc5c3F)N3CCCOC[C@H]3N4C)c12 [Compound 149] | 5.08 nM | 10.2 nM |
| C#Cc1c(F)ccc2cc(N)cc(-c3nc4c5c(nc(OCC67CCCN6CC6(C7)CC6(F)F)nc5c3F)N3CCCOC[C@H]3CO4)c12 (some centres unmarked) [Compound 25] | 2.97 nM | 2.58 nM |
| C#Cc1c(F)ccc2cc(N)cc(-c3nc4c5c(nc(OC[C@@]67CCCN6C[C@H](F)C7)nc5c3F)N3CC=CCCC3N4C)c12 (some centres unmarked) [Compound 99] | 3.48 nM | 7.13 nM |
| C#Cc1c(F)ccc2cc(N)cc(-c3nc4c5c(nc(OC[C@@]67CCCN6C[C@H](F)C7)nc5c3F)N3CC[C@H](F)CC[C@H]3N4C)c12 [Compound 83] | 1.45 nM | 0.712 nM |
